From the RNAGym collection of RNA variant scans (doi:10.7554/elife.90254)
Read counts are not given, so values of variants with three or more changes are uncertain.

B1: LINE1-mini (parent)
chain: GGCAGAGCUCAACACAGCGUGGCAAAGUGGCUGUGGCUAGACUGCC

Variants of: B1
Experiment: self-cleavage, relative activity (ratio to wild type); higher = more cleavage; in vitro, sequencing; the parent is a self-cleaving ribozyme

Variant	self-cleavage
G2C A24C A26C U38A C45U	0.02
G2C A24G C46G	0.18
G2C A24U C45G	0.52
G2C A24U G40A U43C	0.12
G2C A24U U28G G29A A41C C45U	0.05
G2C A25G G40U	0.26
G2C A25U G33U U34A G44C	0.42
G2C A26C U32A	0.06
G2C A26G C42A	0.02
G2C A26G G35U	0.24
G2C A26U A39U A41U	0.14
G2C A26U G30U	0.12
G2C A39G C42G	0.47
G2C A41G G44U	0.05
G2C A41U U43G C45A	0.09
G2C C3A A12C A14C G19C G27U G36A G40C C45G	0.01
G2C C3A C10U G30A C45G	0.16
G2C C3A C15A G35C	0.05
G2C C3A G21A G30A C37G	0.22
G2C C3A G21C	0.11
G2C C3A G30A	0.31
G2C C3G C8U C18U G30C G35A G40U	0.03
G2C C3G C46A	0.1
G2C C3G C46U	0.02

Variant	self-cleavage
G2C C3G G40A	0.03
G2C C3U A4U C8U	0.7
G2C C3U A11U C13G G17C G22A	0.01
G2C C3U A16C G19U G30A	0.07
G2C C3U A16G C18A U28C U43A	0.08
G2C C3U A41C	0.08
G2C C3U C8A	0.06
G2C C3U G30U	0.22
G2C C3U U9A A14C C37A G40A	0.12
G2C C8A A14U C23A U32G U34A G35U	0.78
G2C C8A A26U	0.14
G2C C8A A39C C42A U43C	0.2
G2C C8A C18G G29A G36A	0.07
G2C C8A C37U	0.03
G2C C8G A11C C13A C18A C23A	0.02
G2C C8G A12C G29U G44U	0.02
G2C C8G A24U G36U	0.02
G2C C8G C23U	0.01
G2C C8G G19A	0.07
G2C C8G G33U	0.08
G2C C8G U9G C15G G36U	0.03
G2C C8G U20C C37G	0.01
G2C C8U A24C C31A C45A	0.25
G2C C8U A24U G40A C45G	0.03

Variant	self-cleavage
G2C C8U A26C C46G	0.3
G2C C8U C15A G27U G36A G44C C46U	0.19
G2C C8U C42G	0.39
G2C C8U G21C G27A G40A	0.06
G2C C8U G21U U34A	0.13
G2C C8U G29C G40U	0.07
G2C C8U U9A U20A A25U G40U	0.36
G2C C10A C13G G33A	0.01
G2C C10A C31A C37U G44U C46A	0
G2C C10A G21C G22C G36U	0.03
G2C C10A G21U G44C	0
G2C C10A G29U	0
G2C C10A G29U G44C	0.01
G2C C10A U28G U34A G36U A41C	0.01
G2C C10G A14C	0.01
G2C C10G A24G C31U C46G	0.01
G2C C10G C18G G36A	0
G2C C10G G22C G35U G36A U38C	0.01
G2C C10G G30A	0
G2C C10G G30C	0.01
G2C C10G U20A G35C G36C G40U C45U C46U	0
G2C C10G U28C C42U U43A	0
G2C C10G U34A U38G	0
G2C C10U A11C C31A C46A	0.03

Variant	self-cleavage
G2C C10U A14C A24G C31G U32G A41C	0.02
G2C C10U C31U A41C	0.03
G2C C10U C45G	0.24
G2C C10U G17A C23G U43G	0
G2C C10U G21U G27C	0.04
G2C C13G A14G	0.02
G2C C13G A14U C23A U38A	0.01
G2C C13G A39U	0.06
G2C C13G G22C C23A G29U	0.22
G2C C13G U38A G40C A41U	0.05
G2C C13U A14U C18A G35C A41U	0.01
G2C C15A A26U	0.06
G2C C15A G17U G22A G33A A41U G44A	0.09
G2C C15A G36C	0.1
G2C C15A U38G G44C	0.04
G2C C15G A41G C45A	0.01
G2C C15G C23G A25G U38C	0.02
G2C C15G C31U U34C	0.02
G2C C15G G29A	0.04
G2C C15U A24C G27C	0.05
G2C C15U C18U G40A	0.01
G2C C15U C42A C45U	0.16
G2C C15U G35C	0.1
G2C C15U U28C U38C U43C	0.07

Variant	self-cleavage
G2C C18A C23A U32G C45A	0.07
G2C C18G A25C G30A C31U G33C C45G	0.05
G2C C18U A25C C31U	0.15
G2C C18U A25C G36A C42G	0.09
G2C C18U C23A	0.18
G2C C23G A41C	0.13
G2C C31A A41G	0.04
G2C C31A U32G	0.09
G2C G5A A11C	0.04
G2C G5A A11U	0.02
G2C G5A A12U G21A G36A C37A U38A	0.11
G2C G5A C10A	0.04
G2C G5A G7U A26G U28G G35U	0.37
G2C G5A G17C G30U	0.05
G2C G5A G19U U38C	0.01
G2C G5A G21U G40U U43C	0.43
G2C G5A G33A	0.01
G2C G5A G36U	0.06
G2C G5C A6U G27A G30U C46U	0.05
G2C G5C G7U A39C G44A C46A	0.03
G2C G5C U34A C45U	0.03
G2C G5U A14U	0.06
G2C G5U C10U	0.05
G2C G5U C15U C42G	0.03

Variant	self-cleavage
G2C G5U G17C	0.02
G2C G5U U9A G33C	0.03
G2C G5U U20G	0.01
G2C G7A C10G	0.04
G2C G7A C10G C13A A16U G21U G27U	0.03
G2C G7A C18A A24G G40U	0.08
G2C G7A G19U G22C A25U U32C C45A	0.22
G2C G7C C10A A11G G27C G40U	0.01
G2C G7C G29U	0.25
G2C G7C U9A G33U C37U U38C U43A	0.02
G2C G7C U28G G40U	0.15
G2C G7U C8A G17U A39U	0.11
G2C G7U C10A G36C A39C	0.02
G2C G7U C10G U38A	0.02
G2C G7U C13A G40U	0.24
G2C G7U G33C G40A A41C	0.07
G2C G7U G40A	0.23
G2C G17A G27A	0.15
G2C G17C G30A A39U	0.01
G2C G17C U34G	0.05
G2C G17U C18G G19A	0.06
G2C G17U C42U	0.03
G2C G17U G36U	0.04
G2C G19A U28G C42U	0.32

Variant	self-cleavage
G2C G19C G21U A25C G27U	0.36
G2C G19C U28C G40U	0.04
G2C G21A C23G G27U U34A	0.05
G2C G21A U32G G33U U43G G44C	0.01
G2C G21C A26U U32G	0.03
G2C G21U C42A U43A	0.12
G2C G21U C46A	0.12
G2C G22A C42U	0.02
G2C G22C A39G	0.42
G2C G22U G29A	0.3
G2C G27A A41C	0.12
G2C G27A C42A	0.02
G2C G27A C42G	0.2
G2C G27A G33C A39U C42A	0.01
G2C G27C G30C A39U	0.08
G2C G27U G35A	0
G2C G29A C37U	0.09
G2C G29C C31G A39U G40A	0.01
G2C G29U C42G	0.24
G2C G29U U32A G35A A41C	0.03
G2C G30C C37U	0.18
G2C G33C C46A	0.04
G2C G33C G40U U43G C46A	0.02
